# Results taken from the supplement of paper PMC8728848.
# This is one part of the list.
# Tests used:
# Assay in all cases: glycan array binding signal (z-score within array); higher = stronger binding
# Details in all cases: glycan notation: IUPAC condensed, linker removed
# [1] = molecular target: GlcNAc(b1-2)[GlcNAc(b1-4)]Man(a1-3)[GlcNAc(b1-4)][GlcNAc(b1-2)[GlcNAc(b1-6)]Man(a1-6)]Man(b1-4)GlcNAc(b1-4)GlcNAc
# Outline: (§1)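 Glycan array data were curated from 3228 arrays in the Consortium for Functional Glycomics database and kept only where the protein sequence was available. Glycan names were converted to IUPAC-condensed notation, and columns mapping to the same glycan were averaged. The binding signal is a within-array Z-score, averaged across arrays of the same protein sequence at different concentrations or buffers and across linkers. Negative Z-scores can be read as non-binding.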
# [2] = molecular target: GlcNAc(b1-2)[GlcNAc(b1-4)]Man(a1-3)[GlcNAc(b1-4)][GlcNAc(b1-2)[GlcNAc(b1-6)]Man(a1-6)]Man(b1-4)GlcNAc(b1-4)[Fuc(a1-6)]GlcNAc
# Outline: as §1
# [3] = molecular target: GlcNAc(b1-2)[GlcNAc(b1-6)]Man(a1-6)[GlcNAc(b1-2)Man(a1-3)]Man(b1-4)GlcNAc(b1-4)GlcNAc
# Outline: as §1
# [4] = molecular target: GlcNAc(b1-2)[GlcNAc(b1-6)]Man(a1-6)[GlcNAc(b1-2)Man(a1-3)]Man(b1-4)GlcNAc(b1-4)[Fuc(a1-6)]GlcNAc
# Outline: as §1
# [5] = molecular target: GlcNAc(b1-2)[GlcNAc(b1-6)]Man(a1-6)[GlcNAc(b1-4)][GlcNAc(b1-2)Man(a1-3)]Man(b1-4)GlcNAc(b1-4)GlcNAc
# Outline: as §1
# GlcNAc(b1-3)Fuc = molecular target: GlcNAc(b1-3)Fuc
# Outline: as §1
# GlcNAc(b1-3)Gal = molecular target: GlcNAc(b1-3)Gal
# Outline: as §1
# [6] = molecular target: GlcNAc(b1-3)Gal(b1-3)GalNAc
# Outline: as §1
# GlcNAc(b1-3)Gal(b1-4)Glc = molecular target: GlcNAc(b1-3)Gal(b1-4)Glc
# Outline: as §1
# [7] = molecular target: GlcNAc(b1-3)Gal(b1-4)GlcNAc
# Outline: as §1
# [8] = molecular target: GlcNAc(b1-3)Gal(b1-4)GlcNAc(b1-2)Man(a1-3)[GlcNAc(b1-3)Gal(b1-4)GlcNAc(b1-2)Man(a1-6)]Man(b1-4)GlcNAc(b1-4)GlcNAc
# Outline: as §1
# [9] = molecular target: GlcNAc(b1-3)Gal(b1-4)GlcNAc(b1-2)Man(a1-3)[GlcNAc(b1-3)Gal(b1-4)GlcNAc(b1-2)Man(a1-6)]Man(b1-4)GlcNAc(b1-4)[Fuc(a1-6)]GlcNAc
# Outline: as §1
# [10] = molecular target: GlcNAc(b1-3)Gal(b1-4)GlcNAc(b1-2)[GlcNAc(b1-3)Gal(b1-4)GlcNAc(b1-6)]Man(a1-6)[GlcNAc(b1-3)Gal(b1-4)GlcNAc(b1-2)Man(a1-3)]Man(b1-4)GlcNAc(b1-4)GlcNAc
# Outline: as §1
# [11] = molecular target: GlcNAc(b1-3)Gal(b1-4)GlcNAc(b1-3)Gal(b1-4)GlcNAc
# Outline: as §1
# [12] = molecular target: GlcNAc(b1-3)Gal(b1-4)GlcNAc(b1-3)Gal(b1-4)GlcNAc(b1-2)Man(a1-3)[GlcNAc(b1-3)Gal(b1-4)GlcNAc(b1-3)Gal(b1-4)GlcNAc(b1-2)Man(a1-6)]Man(b1-4)GlcNAc(b1-4)GlcNAc
# Outline: as §1
# [13] = molecular target: GlcNAc(b1-3)Gal(b1-4)GlcNAc(b1-3)Gal(b1-4)GlcNAc(b1-2)Man(a1-3)[GlcNAc(b1-3)Gal(b1-4)GlcNAc(b1-3)Gal(b1-4)GlcNAc(b1-2)Man(a1-6)]Man(b1-4)GlcNAc(b1-4)[Fuc(a1-6)]GlcNAc
# Outline: as §1
# [14] = molecular target: GlcNAc(b1-3)Gal(b1-4)GlcNAc(b1-3)Gal(b1-4)GlcNAc(b1-2)[GlcNAc(b1-3)Gal(b1-4)GlcNAc(b1-3)Gal(b1-4)GlcNAc(b1-6)]Man(a1-6)[GlcNAc(b1-3)Gal(b1-4)GlcNAc(b1-3)Gal(b1-4)GlcNAc(b1-2)Man(a1-3)]Man(b1-4)GlcNAc(b1-4)[Fuc(a1-6)]GlcNAc
# Outline: as §1
# [15] = molecular target: GlcNAc(b1-3)Gal(b1-4)GlcNAc(b1-3)Gal(b1-4)GlcNAc(b1-3)Gal(b1-4)GlcNAc(b1-2)Man(a1-3)[GlcNAc(b1-3)Gal(b1-4)GlcNAc(b1-3)Gal(b1-4)GlcNAc(b1-3)Gal(b1-4)GlcNAc(b1-2)Man(a1-6)]Man(b1-4)GlcNAc(b1-4)GlcNAc
# Outline: as §1
# [16] = molecular target: GlcNAc(b1-3)Gal(b1-4)GlcNAc(b1-3)Gal(b1-4)GlcNAc(b1-3)Gal(b1-4)GlcNAc(b1-2)Man(a1-3)[GlcNAc(b1-3)Gal(b1-4)GlcNAc(b1-3)Gal(b1-4)GlcNAc(b1-3)Gal(b1-4)GlcNAc(b1-2)Man(a1-6)]Man(b1-4)GlcNAc(b1-4)[Fuc(a1-6)]GlcNAc
# Outline: as §1
# [17] = molecular target: GlcNAc(b1-3)Gal(b1-4)GlcNAc(b1-3)Gal(b1-4)GlcNAc(b1-3)Gal(b1-4)GlcNAc(b1-2)[GlcNAc(b1-3)Gal(b1-4)GlcNAc(b1-3)Gal(b1-4)GlcNAc(b1-3)Gal(b1-4)GlcNAc(b1-6)]Man(a1-6)[GlcNAc(b1-3)Gal(b1-4)GlcNAc(b1-3)Gal(b1-4)GlcNAc(b1-3)Gal(b1-4)GlcNAc(b1-2)Man(a1-3)]Man(b1-4)GlcNAc(b1-4)[Fuc(a1-6)]GlcNAc
# Outline: as §1
# [18] = molecular target: GlcNAc(b1-3)Gal(b1-4)GlcNAc(b1-3)Gal(b1-4)GlcNAc(b1-3)Gal(b1-4)GlcNAc(b1-3)Gal(b1-4)GlcNAc(b1-2)Man(a1-3)[GlcNAc(b1-3)Gal(b1-4)GlcNAc(b1-3)Gal(b1-4)GlcNAc(b1-3)Gal(b1-4)GlcNAc(b1-3)Gal(b1-4)GlcNAc(b1-2)Man(a1-6)]Man(b1-4)GlcNAc(b1-4)GlcNAc
# Outline: as §1
# [19] = molecular target: GlcNAc(b1-3)Gal(b1-4)GlcNAc(b1-3)Gal(b1-4)GlcNAc(b1-3)Gal(b1-4)GlcNAc(b1-3)Gal(b1-4)GlcNAc(b1-2)Man(a1-3)[GlcNAc(b1-3)Gal(b1-4)GlcNAc(b1-3)Gal(b1-4)GlcNAc(b1-3)Gal(b1-4)GlcNAc(b1-3)Gal(b1-4)GlcNAc(b1-2)Man(a1-6)]Man(b1-4)GlcNAc(b1-4)[Fuc(a1-6)]GlcNAc
# Outline: as §1
# [20] = molecular target: GlcNAc(b1-3)Gal(b1-4)GlcNAc(b1-3)Gal(b1-4)GlcNAc(b1-3)Gal(b1-4)GlcNAc(b1-3)Gal(b1-4)GlcNAc(b1-2)[GlcNAc(b1-3)Gal(b1-4)GlcNAc(b1-3)Gal(b1-4)GlcNAc(b1-3)Gal(b1-4)GlcNAc(b1-3)Gal(b1-4)GlcNAc(b1-6)]Man(a1-6)[GlcNAc(b1-3)Gal(b1-4)GlcNAc(b1-3)Gal(b1-4)GlcNAc(b1-3)Gal(b1-4)GlcNAc(b1-3)Gal(b1-4)GlcNAc(b1-2)Man(a1-3)]Man(b1-4)GlcNAc(b1-4)[Fuc(a1-6)]GlcNAc
# Outline: as §1
binder,measurement,setting,value
AidA (Burkholderia cenocepacia) (protein) MSRVTDVLVSFDTETILKKYPNPSKNPAAPTLIDWRYVYMVTNQDNVISGQAGGELDLKAQVGDLIRWRETSLSLGFENQVVFYKFIGNVGNDLISTPTPRVAEASIPVPNTSKPEVPTCQKVANYYWSSECLKVGRVTYHFQFQIIDRNCQSQGCFSWDPFISIHN,glycan array binding signal (z-score),[1],0.147
same,glycan array binding signal (z-score),[2],-0.624
same,glycan array binding signal (z-score),[3],-0.482
same,glycan array binding signal (z-score),[4],0.418
same,glycan array binding signal (z-score),[5],0.158
same,glycan array binding signal (z-score),GlcNAc(b1-3)Fuc,-0.527
same,glycan array binding signal (z-score),GlcNAc(b1-3)Gal,0.941
same,glycan array binding signal (z-score),[6],-0.191
same,glycan array binding signal (z-score),GlcNAc(b1-3)Gal(b1-4)Glc,-0.186
same,glycan array binding signal (z-score),[7],-0.208
same,glycan array binding signal (z-score),[8],-0.702
same,glycan array binding signal (z-score),[9],-0.074
same,glycan array binding signal (z-score),[10],2.61
same,glycan array binding signal (z-score),[11],0.86
same,glycan array binding signal (z-score),[12],0.354
same,glycan array binding signal (z-score),[13],0.683
same,glycan array binding signal (z-score),[14],0.88
same,glycan array binding signal (z-score),[15],0.41
same,glycan array binding signal (z-score),[16],0.165
same,glycan array binding signal (z-score),[17],0.071
same,glycan array binding signal (z-score),[18],0.816
same,glycan array binding signal (z-score),[19],-0.735
same,glycan array binding signal (z-score),[20],0.207
